Measured values as given in patent US20120213758A1, “BIARYL PDE4 INHIBITORS FOR TREATING PULMONARY AND CARDIOVASCULAR DISORDERS” (DeCODE Genetics enf, priority 2007, published 2012).

system: sephadex bead stimulated LTE4 production in whole human blood; settings: 1.5 h, read-out: IC50, inhibition of Sephadex-stimulated LTE4 production

SMILES	IC50 [µM]
COc1ccc(Cc2ccc(N(CC(=O)O)C(C)=O)nc2)c(F)c1-c1cccc(Cl)c1 [Example A-037, {acetyl-[5-(3′-chloro-2-fluoro-6-methoxy-biphenyl-3-ylmethyl)-pyridin-2-yl]-amino}-acetic acid]	< 1
COc1ccc(Cc2ccc(NS(N)(=O)=O)cc2)c(F)c1-c1cccc(C(C)=O)c1 [Example A-016]	< 1
COc1ccc(Cc2ccc(NC(=O)NCC(=O)O)nc2)c(F)c1-c1cccc(Cl)c1 [Example A-028]	> 1
COc1ccc(Cc2ccc(NCC(=O)O)nc2)c(F)c1-c1cccc(Cl)c1 [Example A-035, [5-(3′-chloro-2-fluoro-6-methoxy-biphenyl-3-ylmethyl)-pyridin-2-ylamino]-acetic acid]	< 1
COc1ccc(Cc2ccc(NS(N)(=O)=O)cc2)c(F)c1-c1cccc(Cl)c1 [Example A-008]	< 1
COc1ccc(Cc2ccc(N3CC[C@H]3C(=O)O)nc2)c(F)c1-c1cccc(Cl)c1 [Example A-066, (S)-1-[5-(3′-chloro-2-fluoro-6-methoxy-biphenyl-3-ylmethyl)-pyridin-2-yl]-azetidine-2-carboxylic acid]	< 1
